Substitutions are numbered along the chain they refer to; changes in the protein carry UniProt numbers. The list shows a part of the results.

From publication PMC9911399, “Two distinct binding modes provide the RNA-binding protein RbFox with extraordinary sequence specificity” come the findings set out here.

B1: CGACCGA (DNA:RNA)
RNA: GGGAGACCGGAAUUCAGAUUGUCCCGACCGAUUAAAUCCCGUCGUAGCCACCA
DNA 1: CAATCTGAATTCCGGTCTCCC
DNA 2: TGGTGGCTACGACGGGATT
B2: GCACGGU (DNA:RNA)
RNA: B1 RNA with C25G, G26C, C29G, A31U
DNA 1: CAATCTGAATTCCGGTCTCCC
DNA 2: TGGTGGCTACGACGGGATT
B3: CGGAGUG (DNA:RNA)
RNA: B1 RNA with A27G, C28A, C29G, G30U, A31G
DNA 1: CAATCTGAATTCCGGTCTCCC
DNA 2: TGGTGGCTACGACGGGATT
B4: GAUCGUG (DNA:RNA)
RNA: B1 RNA with C25G, G26A, A27U, C29G, G30U, A31G
DNA 1: CAATCTGAATTCCGGTCTCCC
DNA 2: TGGTGGCTACGACGGGATT
B5: GGAUCAC (DNA:RNA)
RNA: B1 RNA with C25G, C28U, G30A, A31C
DNA 1: CAATCTGAATTCCGGTCTCCC
DNA 2: TGGTGGCTACGACGGGATT
B6: AUGGUAC (DNA:RNA)
RNA: GGGAGACCGGAAUUCAGAUUGUCCAUGGUACUUAAAUCCCGUCGUAGCCACCA
DNA 1: CAATCTGAATTCCGGTCTCCC
DNA 2: TGGTGGCTACGACGGGATT
B7: GACAGCC (DNA:RNA)
RNA: B6 RNA with A25G, U26A, G27C, G28A, U29G, A30C
DNA 1: CAATCTGAATTCCGGTCTCCC
DNA 2: TGGTGGCTACGACGGGATT
B8: AUUAUGA (DNA:RNA)
RNA: B6 RNA with G27U, G28A, A30G, C31A
DNA 1: CAATCTGAATTCCGGTCTCCC
DNA 2: TGGTGGCTACGACGGGATT
B9: GGUGUGC (DNA:RNA)
RNA: B6 RNA with A25G, U26G, G27U, A30G
DNA 1: CAATCTGAATTCCGGTCTCCC
DNA 2: TGGTGGCTACGACGGGATT
B10: GCGCUUU (DNA:RNA)
RNA: B6 RNA with A25G, U26C, G28C, A30U, C31U
DNA 1: CAATCTGAATTCCGGTCTCCC
DNA 2: TGGTGGCTACGACGGGATT
B11: UCAACAC (DNA:RNA)
RNA: B6 RNA with A25U, U26C, G27A, G28A, U29C
DNA 1: CAATCTGAATTCCGGTCTCCC
DNA 2: TGGTGGCTACGACGGGATT
B12: UGUUGCG (DNA:RNA)
RNA: B1 RNA with C25U, A27U, C28U, C29G, G30C, A31G
DNA 1: CAATCTGAATTCCGGTCTCCC
DNA 2: TGGTGGCTACGACGGGATT
B13: UUUUAUC (DNA:RNA)
RNA: B6 RNA with A25U, G27U, G28U, U29A, A30U
DNA 1: CAATCTGAATTCCGGTCTCCC
DNA 2: TGGTGGCTACGACGGGATT
B14: UAAAGGA (DNA:RNA)
RNA: B1 RNA with C25U, G26A, C28A, C29G
DNA 1: CAATCTGAATTCCGGTCTCCC
DNA 2: TGGTGGCTACGACGGGATT
B15: UGCAGAU (DNA:RNA)
RNA: B6 RNA with A25U, U26G, G27C, G28A, U29G, C31U
DNA 1: CAATCTGAATTCCGGTCTCCC
DNA 2: TGGTGGCTACGACGGGATT
B16: GGCUGAC (DNA:RNA)
RNA: B6 RNA with A25G, U26G, G27C, G28U, U29G
DNA 1: CAATCTGAATTCCGGTCTCCC
DNA 2: TGGTGGCTACGACGGGATT
B17: AUGUUUG (DNA:RNA)
RNA: B6 RNA with G28U, A30U, C31G
DNA 1: CAATCTGAATTCCGGTCTCCC
DNA 2: TGGTGGCTACGACGGGATT
B18: AAACAUU (DNA:RNA)
RNA: B1 RNA with C25A, G26A, C29A, G30U, A31U
DNA 1: CAATCTGAATTCCGGTCTCCC
DNA 2: TGGTGGCTACGACGGGATT
B19: UUCCCCU (DNA:RNA)
RNA: B1 RNA with C25U, G26U, A27C, G30C, A31U
DNA 1: CAATCTGAATTCCGGTCTCCC
DNA 2: TGGTGGCTACGACGGGATT
B20: CCCCAAU (DNA:RNA)
RNA: B1 RNA with G26C, A27C, C29A, G30A, A31U
DNA 1: CAATCTGAATTCCGGTCTCCC
DNA 2: TGGTGGCTACGACGGGATT
B21: GGCACGG (DNA:RNA)
RNA: B1 RNA with C25G, A27C, C28A, A31G
DNA 1: CAATCTGAATTCCGGTCTCCC
DNA 2: TGGTGGCTACGACGGGATT
B22: GGUAAUG (DNA:RNA)
RNA: B1 RNA with C25G, A27U, C28A, C29A, G30U, A31G
DNA 1: CAATCTGAATTCCGGTCTCCC
DNA 2: TGGTGGCTACGACGGGATT
B23: UCACCAU (DNA:RNA)
RNA: B1 RNA with C25U, G26C, G30A, A31U
DNA 1: CAATCTGAATTCCGGTCTCCC
DNA 2: TGGTGGCTACGACGGGATT
B24: GGGGCAA (DNA:RNA)
RNA: B6 RNA with A25G, U26G, U29C, C31A
DNA 1: CAATCTGAATTCCGGTCTCCC
DNA 2: TGGTGGCTACGACGGGATT
B25: GUCCCGU (DNA:RNA)
RNA: B1 RNA with C25G, G26U, A27C, A31U
DNA 1: CAATCTGAATTCCGGTCTCCC
DNA 2: TGGTGGCTACGACGGGATT
B26: GAAUGGC (DNA:RNA)
RNA: B1 RNA with C25G, G26A, C28U, C29G, A31C
DNA 1: CAATCTGAATTCCGGTCTCCC
DNA 2: TGGTGGCTACGACGGGATT
B27: CUUCUGU (DNA:RNA)
RNA: B1 RNA with G26U, A27U, C29U, A31U
DNA 1: CAATCTGAATTCCGGTCTCCC
DNA 2: TGGTGGCTACGACGGGATT
B28: CCUGUUC (DNA:RNA)
RNA: B6 RNA with A25C, U26C, G27U, A30U
DNA 1: CAATCTGAATTCCGGTCTCCC
DNA 2: TGGTGGCTACGACGGGATT
B29: GGUGGGG (DNA:RNA)
RNA: B1 RNA with C25G, A27U, C28G, C29G, A31G
DNA 1: CAATCTGAATTCCGGTCTCCC
DNA 2: TGGTGGCTACGACGGGATT
B30: CGUAAAC (DNA:RNA)
RNA: B6 RNA with A25C, U26G, G27U, G28A, U29A
DNA 1: CAATCTGAATTCCGGTCTCCC
DNA 2: TGGTGGCTACGACGGGATT
B31: AUUUGCC (DNA:RNA)
RNA: B6 RNA with G27U, G28U, U29G, A30C
DNA 1: CAATCTGAATTCCGGTCTCCC
DNA 2: TGGTGGCTACGACGGGATT

This assay addresses T1, RBFOX1 RRM RbFoxmut (Fox-RRM*) (Homo sapiens, UniProt Q9NWB1 109-208, R118D;E147R;N151S;E152T).
T1 sequence: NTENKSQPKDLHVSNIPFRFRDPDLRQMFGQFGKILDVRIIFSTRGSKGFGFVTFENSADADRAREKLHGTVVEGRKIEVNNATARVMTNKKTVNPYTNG
Nature of the assay: EMSA; HiTS-Eq, 1 nM pool, 10 min; buffer printed only for the single-RNA assays: 10 mM Tris pH 7.5, 150 mM NaCl, 3.4 mM EDTA, 0.001% NP-40, 30 C. The conditions noted are these: tags: His6 N-terminal (pET28a); label: 5' 32P. In a few lines: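 Purified RbFox RRM, wild type or mutant, was incubated for 10 min in 50 µL with 1 nM of a 5′-radiolabelled RNA pool carrying 7 randomized nucleotides, whose flanks were annealed to DNA oligonucleotides, over a series of increasing protein concentrations. Unbound RNA was resolved on 8% native PAGE, cut out, reverse-transcribed, barcoded by PCR and sequenced on an Illumina HiSeq 2500. Relative association constants were derived from changes in read counts for each RNA species versus the control reaction and normalised to the cognate motif.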
In general terms: A gel shift assay detects complexes by their altered migration in electrophoresis.
As for B1, the binding signal is 0.0812 KA relative to UGCAUGU.

For B2, the binding signal is 0.289 KA relative to UGCAUGU.

On to B3, for which the binding signal is 0.198 KA relative to UGCAUGU.

Turning to B4, the binding signal is 0.181 KA relative to UGCAUGU.

On to B5, for which the binding signal is 0.0978 KA relative to UGCAUGU.

Consider B6, for which the binding signal was 0.142 KA relative to UGCAUGU.

As for B7, the binding signal was 0.0467 KA relative to UGCAUGU.

Turning to B8, the binding signal is 0.122 KA relative to UGCAUGU.

For the molecule B9, the binding signal was 0.15 KA relative to UGCAUGU.

In the case of B10, the binding signal is 0.0897 KA relative to UGCAUGU.

Consider B11, for which the binding signal is 0.0639 KA relative to UGCAUGU.

Regarding B12, the binding signal is 0.208 KA relative to UGCAUGU.

B13: the binding signal was 0.0874 KA relative to UGCAUGU.

In the case of B14, the binding signal was 0.06 KA relative to UGCAUGU.

Consider B15, for which the binding signal is 0.127 KA relative to UGCAUGU.

Regarding B16, the binding signal was 0.113 KA relative to UGCAUGU.

Consider B17, for which the binding signal is 0.626 KA relative to UGCAUGU.

With B18, the binding signal was 0.0578 KA relative to UGCAUGU.

Turning to B19, the binding signal is 0.0625 KA relative to UGCAUGU.

Regarding B20, the binding signal is 0.0644 KA relative to UGCAUGU.

On to B21, for which the binding signal is 0.149 KA relative to UGCAUGU.

Turning to B22, the binding signal is 0.321 KA relative to UGCAUGU.

With B23, the binding signal is 0.0886 KA relative to UGCAUGU.

Turning to B24, the binding signal is 0.0741 KA relative to UGCAUGU.

With B25, the binding signal is 0.11 KA relative to UGCAUGU.

As to B26, the binding signal is 0.592 KA relative to UGCAUGU.

Turning to B27, the binding signal is 0.0941 KA relative to UGCAUGU.

B28: the binding signal is 0.0785 KA relative to UGCAUGU.

B29: the binding signal was 0.0688 KA relative to UGCAUGU.

Take B30: the binding signal was 0.0996 KA relative to UGCAUGU.

For B31, the binding signal was 0.257 KA relative to UGCAUGU.
